Lines with a small IC50 respond at low doses; a limit (>, <) means that the fit lies beyond the doses tested. AUC, from the same fit, is the share of area under the viability curve across the 256-fold dose range; it is 1 without any effect and falls as sensitivity rises. An inferred top dose was calculated from the reported fits.
What was measured:
Test in all cases: Viability of human cancer cell lines after 72 h of drug (GDSC screen)
[1] = compound: CCN1CCN(Cc2ccc(NC(=O)c3ccc(C)c(Oc4ccnc5[nH]ccc45)c3)cc2C(F)(F)F)CC1 [NG-25]; settings: top dose 10.24 µM; top dose inferred
Method: (§1)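 Human cancer cell lines in 384-well plates, medium with 10% serum, drug for 72 h over a 256-fold dose range (nine 2-fold or five 4-fold steps up to the top dose). Adherent lines were fixed and stained with the nucleic acid dye Syto60, suspension lines read with resazurin; signal relative to control wells, capped at 0 and 100%. One two-parameter sigmoid per drug and line, fitted in a mixed model over all curves with the slope shared within a line.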

[2] = compound: COc1cc(C)c(Sc2cnc(NC(=O)c3ccc(CNC(C)C(C)(C)C)cc3)s2)cc1C(=O)N1CCN(C(C)=O)CC1 [BMS-509744]; settings: top dose 10.24 µM; top dose inferred
Method: as §1

[3] = compound: Cn1cncc1[C@@](N)(c1ccc(Cl)cc1)c1ccc2c(c1)c(-c1cccc(Cl)c1)cc(=O)n2C [Tipifarnib]; settings: top dose 16 µM; top dose inferred
Method: as §1

[4] = compound: COc1ccccc1S(=O)(=O)Nc1ccc2c(c1)CN(C)C(=O)N2 [PFI-1]; settings: top dose 10 µM; top dose inferred
Method: as §1

[5] = compound: CCc1cc(Nc2nccc(-c3c(-c4ccc(OC)c(C(=O)Nc5c(F)cccc5F)c4)nc4ccccn34)n2)c(OC)cc1N1CCC(N2CCN(S(C)(=O)=O)CC2)CC1 [GSK-1904529A]; settings: top dose 1.024 µM; top dose inferred
Method: as §1

Cell Line | AUC [1] | IC50 [1] [µM] | AUC [2] | IC50 [2] [µM] | AUC [3] | IC50 [3] [µM] | AUC [4] | IC50 [4] [µM] | AUC [5] | IC50 [5] [µM]
GAK (melanoma, adherent) | 0.884 | 10.2 | 0.945 | > 10.2 | 0.713 | 3.86 | 0.886 | > 10 | 0.962 | > 1.02
COLO-684 (endometrium, suspension) | 0.82 | 6.82 | 0.968 | > 10.2 | 0.612 | 2.12 | 0.878 | > 10 | 0.971 | > 1.02
JAR (urogenital system, adherent) | 0.974 | > 10.2 | 0.925 | > 10.2 | 0.971 | > 16 | 0.891 | > 10 | 0.987 | > 1.02
GT3TKB (stomach, adherent) | 0.973 | > 10.2 | 0.929 | > 10.2 | 0.628 | 2.14 | 0.73 | 2.56 | 0.988 | > 1.02
NB5 (neuroblastoma, adherent) | 0.825 | 6.26 | 0.931 | > 10.2 | 0.943 | > 16 | 0.904 | > 10 | 0.985 | > 1.02
COLO-668 (small cell lung carcinoma, adherent) | 0.899 | > 10.2 | 0.939 | > 10.2 | 0.692 | 3.46 | 0.969 | > 10 | 0.988 | > 1.02
NCI-H847 (small cell lung carcinoma, adherent) | 0.835 | 5.02 | 0.953 | > 10.2 | 0.073 | < 0.0625 | 0.836 | 4.93 | 0.973 | > 1.02
NB(TU)1-10 (neuroblastoma, adherent) | 0.811 | 4.56 | 0.896 | 9.57 | 0.669 | 2.75 | 0.993 | > 10 | 0.966 | > 1.02
ES5 (Ewing sarcoma, adherent) | 0.767 | 4.37 | 0.915 | > 10.2 | 0.7 | 4.01 | 0.732 | 3.2 | 0.977 | > 1.02
RF-48 (stomach, adherent) | 0.367 | 0.263 | 0.941 | > 10.2 | 0.556 | 1.45 | 0.975 | > 10 | 0.985 | > 1.02
WSU-NHL (lymphoid neoplasm, suspension) | 0.864 | 7.22 | 0.978 | > 10.2 | 0.738 | 4.33 | 0.803 | 4.27 | 0.989 | > 1.02
LU-165 (small cell lung carcinoma, suspension) | 0.969 | > 10.2 | 0.953 | > 10.2 | 0.968 | > 16 | 0.962 | > 10 | 0.978 | > 1.02
EVSA-T (breast, adherent) | 0.697 | 2.09 | 0.94 | > 10.2 | 0.853 | 9.79 | 0.873 | 7.3 | 0.991 | > 1.02
MV-4-11 (leukaemia, suspension) | 0.375 | 0.31 | 0.859 | 6.17 | 0.424 | 0.647 | 0.609 | 1.17 | 0.982 | > 1.02
GOTO (neuroblastoma, adherent) | 0.794 | 5.44 | 0.852 | 9.71 | 0.833 | 12.4 | 0.794 | 5.33 | 0.974 | > 1.02
MRK-nu-1 (breast, suspension) | 0.842 | 6.37 | 0.862 | 7.64 | 0.488 | 0.93 | 0.989 | > 10 | 0.982 | > 1.02
LB771-HNC (head and neck, adherent) | 0.873 | > 10.2 | 0.845 | > 10.2 | 0.543 | 1.35 | 0.747 | 3.9 | 0.962 | > 1.02

Cell Line | AUC [1] | IC50 [1] [µM] | AUC [2] | IC50 [2] [µM] | AUC [3] | IC50 [3] [µM] | AUC [4] | IC50 [4] [µM] | AUC [5] | IC50 [5] [µM]
LP-1 (myeloma, suspension) | 0.864 | 6.55 | 0.988 | > 10.2 | 0.894 | 13.4 | 0.977 | > 10 | 0.988 | > 1.02
HA7-RCC (kidney, adherent) | 0.811 | 6.11 | 0.854 | 9.38 | 0.522 | 1.15 | 0.886 | > 10 | 0.981 | > 1.02
KURAMOCHI (ovary, adherent) | 0.897 | > 10.2 | 0.898 | > 10.2 | 0.702 | 4.08 | 0.822 | 7.06 | 0.982 | > 1.02
TE-10 (oesophagus, adherent) | 0.952 | > 10.2 | 0.897 | > 10.2 | 0.457 | 0.767 | 0.843 | 6.85 | 0.963 | > 1.02
IST-SL1 (small cell lung carcinoma, semi-adherent) | 0.732 | 3.01 | 0.956 | > 10.2 | 0.862 | 14.4 | 0.836 | 6.93 | 0.982 | > 1.02
KY821 (leukaemia, suspension) | 0.956 | > 10.2 | 0.918 | > 10.2 | 0.979 | > 16 | 0.904 | > 10 | 0.992 | > 1.02
EW-3 (Ewing sarcoma, adherent) | 0.814 | 6.59 | 0.862 | > 10.2 | 0.906 | > 16 | 0.815 | 6.5 | 0.982 | > 1.02
C2BBe1 (large intestine, adherent) | 0.961 | > 10.2 | 0.958 | > 10.2 | 0.892 | > 16 | 0.928 | > 10 | 0.986 | > 1.02
KLE (endometrium, adherent) | 0.784 | 7.31 | 0.935 | > 10.2 | 0.614 | 2.45 | 0.819 | > 10 | 0.966 | > 1.02
BE2-M17 (neuroblastoma, adherent) | 0.935 | > 10.2 | 0.933 | > 10.2 | 0.938 | > 16 | 0.84 | 7.15 | 0.986 | > 1.02
SF268 (glioma, adherent) | 0.801 | 5.45 | 0.864 | 10.1 | 0.723 | 4.54 | 0.89 | > 10 | 0.981 | > 1.02
U-698-M (B-cell leukaemia, suspension) | 0.714 | 2.57 | 0.945 | > 10.2 | 0.709 | 3.89 | 0.941 | > 10 | 0.954 | > 1.02
CP66-MEL (melanoma, adherent) | 0.97 | > 10.2 | 0.959 | > 10.2 | 0.763 | 6.54 | 0.856 | 9.88 | 0.983 | > 1.02
SLVL (B-cell lymphoma, suspension) | 0.522 | 0.739 | 0.946 | > 10.2 | 0.629 | 2.33 | 0.905 | > 10 | 0.98 | > 1.02
NMC-G1 (glioma, adherent) | 0.811 | 7.01 | 0.787 | 5.61 | 0.379 | 0.429 | 0.939 | > 10 | 0.964 | > 1.02
KE-37 (lymphoblastic leukaemia, suspension) | 0.888 | 6.83 | 0.963 | > 10.2 | 0.653 | 2.37 | 0.915 | 8.47 | 0.993 | > 1.02
NCI-H1770 (non-small cell lung carcinoma, suspension) | 0.957 | > 10.2 | 0.954 | > 10.2 | 0.777 | 5.62 | 0.976 | > 10 | 0.992 | > 1.02
